{
  "sequences": {"note": "Protein sequences, listed by entry. Tags and fused reporters are not part of them. Lines headed by an entry give the natural chain unless they say otherwise; changes in a name come on top.", "UniProt P03407": "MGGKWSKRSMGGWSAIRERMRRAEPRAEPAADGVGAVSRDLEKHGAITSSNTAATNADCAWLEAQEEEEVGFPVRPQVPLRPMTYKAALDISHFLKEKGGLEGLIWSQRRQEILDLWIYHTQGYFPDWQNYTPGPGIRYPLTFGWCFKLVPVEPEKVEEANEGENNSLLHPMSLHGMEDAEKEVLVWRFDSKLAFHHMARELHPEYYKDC", "UniProt O95166": "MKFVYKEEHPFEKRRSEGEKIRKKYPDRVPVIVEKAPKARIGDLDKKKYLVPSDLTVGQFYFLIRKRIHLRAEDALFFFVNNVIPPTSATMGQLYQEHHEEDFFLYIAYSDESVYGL", "UniProt P60520": "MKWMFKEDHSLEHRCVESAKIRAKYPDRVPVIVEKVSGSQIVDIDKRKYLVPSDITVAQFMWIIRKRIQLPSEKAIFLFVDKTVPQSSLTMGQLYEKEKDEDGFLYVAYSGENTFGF"},
  "source": "paper PMC5519724",
  "key": {"[1]": {"target": "Nef-DsRed (HIV-1 Nef fused to DsRed) (HIV-1) (UniProt P03407)", "test": "co-IP"}, "[2]": {"target": "recombinant HIV-1 Nef (SF2) with C-terminal hexahistidine tag (HIV-1 (SF2)) (UniProt P03407)", "test": "pull-down; 50 μM purified Nef immobilised on NHS-activated Sepharose 4 Fast Flow by amine coupling; 25 μM purified ATG8 or mutant in 200 μl binding buffer, 4 h at 4 °C; washed three times with 1x PBS; eluted with 50 mM glycine pH 2.3; SDS-PAGE and CBB staining; uncoupled Sepharose as control; both purified"}, "[3]": {"target": "Nef-DsRed (HIV-1 Nef fused to DsRed) (HIV-1) (UniProt P03407)", "test": "co-IP; lysate of HEK293 cells stably expressing Nef-DsRed and transfected with YFP or YFP-ATG8 plasmids; IP with anti-DsRed antibody coupled to agarose beads; blot with anti-YFP"}, "YFP-GABARAP (human)": {"target": "YFP-GABARAP (human) (UniProt O95166)", "test": "co-IP; reciprocal: lysate of HEK293 cells stably expressing Nef-DsRed and transfected with YFP or YFP-ATG8 plasmids; IP with anti-YFP (anti-GFP) antibody coupled to agarose beads; blot with anti-DsRed"}, "YFP-GABARAPL2 (human)": {"target": "YFP-GABARAPL2 (human) (UniProt P60520)", "test": "co-IP; reciprocal: lysate of HEK293 cells stably expressing Nef-DsRed and transfected with YFP or YFP-ATG8 plasmids; IP with anti-YFP (anti-GFP) antibody coupled to agarose beads; blot with anti-DsRed"}, "[4]": {"target": "Golgi-associated ATPase enhancer of 16 kDa/GABARAP-like 2 (GATE-16/GABARAPL2), endogenous (human (endogenous in HEK293)) (UniProt P60520)", "test": "co-IP; reverse IP: lysate of HEK293 cells stably expressing Nef-DsRed; IP with anti-[…]2, anti-GABARAP, anti-[…]1 or anti-LC3B antibody coupled to agarose beads; blot with anti-DsRed"}, "[5]": {"target": "γ-amino-butyric acid receptor-associated protein (GABARAP), endogenous (human (endogenous in HEK293)) (UniProt O95166)", "test": "co-IP; reverse IP: lysate of HEK293 cells stably expressing Nef-DsRed; IP with anti-[…]2, anti-GABARAP, anti-[…]1 or anti-LC3B antibody coupled to agarose beads; blot with anti-DsRed"}},
  "note": "No constants are given. Whether binding was seen depends on the method and setting. For some of these results: Binding seen in cells or lysates may run through a third protein. Some results given as binding are weak or reduced against the parent protein; the word gives no strength.",
  "data": [
    {"substance": "Golgi-associated ATPase enhancer of 16 kDa/GABARAP-like 2 (GATE-16/GABARAPL2), endogenous (from UniProt P60520 1-117)", "values": [
      {"measurement": "binding", "setting": "[1]", "value": "binds"}
    ]},
    {"substance": "γ-amino-butyric acid receptor-associated protein (GABARAP), endogenous (from UniProt O95166 1-117)", "values": [
      {"measurement": "binding", "setting": "[1]", "value": "binds"}
    ]},
    {"substance": "GABARAP(S53D/F62K) (from UniProt O95166 1-117)", "values": [
      {"measurement": "binding", "setting": "[2]", "value": "no binding (tested: 25 μM)"}
    ]},
    {"substance": "recombinant human LC3A (from UniProt Q9H492 1-121)", "values": [
      {"measurement": "binding", "setting": "[2]", "value": "no binding (tested: 25 μM)"}
    ]},
    {"substance": "YFP-GABARAPL2 (from UniProt P60520 1-117)", "values": [
      {"measurement": "binding", "setting": "[3]", "value": "binds"}
    ]},
    {"substance": "YFP-GABARAP (from UniProt O95166 1-117)", "values": [
      {"measurement": "binding", "setting": "[3]", "value": "binds"}
    ]},
    {"substance": "Nef-DsRed (HIV-1 Nef fused to DsRed) (from UniProt P03407)", "values": [
      {"measurement": "binding", "setting": "YFP-GABARAP (human)", "value": "binds"},
      {"measurement": "binding", "setting": "YFP-GABARAPL2 (human)", "value": "binds"},
      {"measurement": "binding", "setting": "[4]", "value": "binds"},
      {"measurement": "binding", "setting": "[5]", "value": "binds"}
    ]}
  ]
}
